Source: a collection of fitness landscapes (doi:10.1016/j.celrep.2020.107928)
Over roughly 81,000 sequences, “one-hybrid fitness for binding parS DNA” has its median near -0.17; the highest 2% begin near 0.51. The list shows a part of the results.

B1: Caulobacter ParB omega fusion; a variant is named by its letters at X, in order, B8GW30 (parent)
chain: MESVVVGEPGMSEGRRGLGRGLSALLGEVDAAPAQAPGEQLGGSREAPIEILQRNPDQPRRTFREEDLEDLSNSIREKGVLQPILVRPSPDTAGEYQIVAGERAWRAAQRAGLKTVPIMVRELDDLAVLEIGIIENVQRADLNVLEEALSYKVLMEKFERTQENIAQTIGKSXSHVANXMRLLXLPDEVQSYLVSGELTAXHARAIAAAADPVALAKQIIEGGLSVRETEALARKAPNLSAGKSKGGRPPRVKDTDTQALESDLSSVLGLDVSIDHRGSTGTLTITYATLEQLDDLCNRLTRGI

Variants of: B1
Assay: one-hybrid fitness for binding parS DNA (scaled: cognate 1, non-cognate 0); higher = stronger binding
Conditions: with parS DNA site
Summary of the method: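 Selection: bacterial one-hybrid in E. coli USO, HIS3 reporter with the site 19 bp from the promoter, 48 hours at 37°C on M9-minus-histidine plus 0.1 mM IPTG and 5 mM 3-AT. Libraries were Caulobacter ParB with four randomised specificity codons, sequenced on Illumina before and after selection. Fitness is the rescaled log change in variant-to-wild-type read ratio, anchored to the cognate and non-cognate sites.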

| Variant | one-hybrid fitness for binding parS DNA |
| --- | --- |
| TEGC | ≤ 0.2 |
| PPGP | ≤ 0.2 |
| QMAF | ≤ 0.2 |
| TQGP | ≤ 0.2 |
| RFRS | 0.954 |
| PQNV | ≤ 0.2 |
| RDHL | ≤ 0.2 |
| DACY | ≤ 0.2 |
| SRLR | ≤ 0.2 |
| PHCG | ≤ 0.2 |
| PAEL | ≤ 0.2 |
| HVVK | ≤ 0.2 |
| SFHL | ≤ 0.2 |
| MAWS | ≤ 0.2 |
| FYII | ≤ 0.2 |
| LQRI | ≤ 0.2 |
| PKRR | ≤ 0.2 |
| EMLT | ≤ 0.2 |
| MRSM | ≤ 0.2 |
| KYAL | ≤ 0.2 |
| DVHT | ≤ 0.2 |
| SMAF | ≤ 0.2 |
| LKHA | ≤ 0.2 |
| SDVF | ≤ 0.2 |
| RIRL | ≤ 0.2 |

| Variant | one-hybrid fitness for binding parS DNA |
| --- | --- |
| VAYI | ≤ 0.2 |
| RTTE | ≤ 0.2 |
| GSHM | ≤ 0.2 |
| QVIM | ≤ 0.2 |
| RFHR | ≤ 0.2 |
| PSWV | ≤ 0.2 |
| KSQG | ≤ 0.2 |
| DDQR | ≤ 0.2 |
| IDCL | ≤ 0.2 |
| DVPR | ≤ 0.2 |
| TYHG | ≤ 0.2 |
| PLPI | ≤ 0.2 |
| PMHQ | ≤ 0.2 |
| ANTA | ≤ 0.2 |
| HTWT | ≤ 0.2 |
| AAGR | ≤ 0.2 |
| EPAF | ≤ 0.2 |
| GVEF | ≤ 0.2 |
| MMVC | ≤ 0.2 |
| NAVW | ≤ 0.2 |
| QRMS | ≤ 0.2 |
| PAVF | ≤ 0.2 |
| AIRW | ≤ 0.2 |
| TGPC | ≤ 0.2 |
| NKRT | ≤ 0.2 |

| Variant | one-hybrid fitness for binding parS DNA |
| --- | --- |
| SITP | ≤ 0.2 |
| EHMG | ≤ 0.2 |
| SPLL | ≤ 0.2 |
| PLAC | ≤ 0.2 |
| LSGK | ≤ 0.2 |
| RCRK | ≤ 0.2 |
| WDCV | ≤ 0.2 |
| TGRD | ≤ 0.2 |
| NAEL | ≤ 0.2 |
| IYRT | ≤ 0.2 |
| LIRE | ≤ 0.2 |
| SSLS | ≤ 0.2 |
| EHGG | ≤ 0.2 |
| LMIE | ≤ 0.2 |
| KDYS | ≤ 0.2 |
| PTQM | ≤ 0.2 |
| RIQS | 0.99 |
| QRLI | ≤ 0.2 |
| DSAI | ≤ 0.2 |
| AMLL | ≤ 0.2 |
| EHPD | ≤ 0.2 |
| CSSK | ≤ 0.2 |
| MCDC | ≤ 0.2 |
| RMRP | ≤ 0.2 |
| QQNV | ≤ 0.2 |

| Variant | one-hybrid fitness for binding parS DNA |
| --- | --- |
| VCAS | ≤ 0.2 |
| DRLH | 0.254 |
| PGVL | ≤ 0.2 |
| DLAS | ≤ 0.2 |
| QINI | ≤ 0.2 |
| QVHL | ≤ 0.2 |
| TAGE | ≤ 0.2 |
| NGNG | ≤ 0.2 |
| THDS | ≤ 0.2 |
| CYRH | ≤ 0.2 |
| RRNC | 0.615 |
| HLSR | ≤ 0.2 |
| RDLL | ≤ 0.2 |
| GRSY | ≤ 0.2 |
| QCRF | ≤ 0.2 |
| LSND | ≤ 0.2 |
| GFAL | ≤ 0.2 |
| DKGD | ≤ 0.2 |
| GRPT | ≤ 0.2 |
| YRPD | ≤ 0.2 |
| TFHV | ≤ 0.2 |
| AERV | ≤ 0.2 |
| CPPM | ≤ 0.2 |
| ALYI | ≤ 0.2 |
| EHVG | ≤ 0.2 |

| Variant | one-hybrid fitness for binding parS DNA |
| --- | --- |
| GIIR | ≤ 0.2 |
| TRHK | ≤ 0.2 |
| VFKQ | ≤ 0.2 |
| RKFA | 0.549 |
| WAAT | ≤ 0.2 |
| TVKS | ≤ 0.2 |
| CANQ | ≤ 0.2 |
| YTHW | ≤ 0.2 |
| VPFH | ≤ 0.2 |
| SYKY | ≤ 0.2 |
| EPNS | ≤ 0.2 |
| ITTP | ≤ 0.2 |
| NKSG | ≤ 0.2 |
| KDSV | ≤ 0.2 |
| FVIG | ≤ 0.2 |
| VWGG | ≤ 0.2 |
| WTVS | ≤ 0.2 |
| EYRD | ≤ 0.2 |
| LETI | ≤ 0.2 |
| MVVR | ≤ 0.2 |
| MPCL | ≤ 0.2 |
| IVCD | ≤ 0.2 |
| RNRV | ≤ 0.2 |
| NRSL | ≤ 0.2 |
| GVKC | ≤ 0.2 |

| Variant | one-hybrid fitness for binding parS DNA |
| --- | --- |
| ESYN | ≤ 0.2 |
| ESTK | ≤ 0.2 |
| IWVC | ≤ 0.2 |
| NCVF | ≤ 0.2 |
| WMNS | ≤ 0.2 |
| HAGH | ≤ 0.2 |
| QGYF | ≤ 0.2 |
| LNQS | ≤ 0.2 |
| MGEC | ≤ 0.2 |
| TRYW | ≤ 0.2 |
| VNVH | ≤ 0.2 |
| ILKR | ≤ 0.2 |
| ALTN | ≤ 0.2 |
| IIER | ≤ 0.2 |
| RMEK | ≤ 0.2 |
| QAWM | ≤ 0.2 |
| AYVI | ≤ 0.2 |
| HTPL | ≤ 0.2 |
| MVAQ | ≤ 0.2 |
| PIEF | ≤ 0.2 |
| VIGF | ≤ 0.2 |
| VGPP | ≤ 0.2 |
| TNHW | ≤ 0.2 |
| RLWW | 0.245 |
| QYSQ | ≤ 0.2 |

| Variant | one-hybrid fitness for binding parS DNA |
| --- | --- |
| VLAN | ≤ 0.2 |
| TLAD | ≤ 0.2 |
| LPFM | ≤ 0.2 |
| ASMP | ≤ 0.2 |
| MLTY | ≤ 0.2 |
| DPRC | ≤ 0.2 |
| ICMS | ≤ 0.2 |
| DTSG | ≤ 0.2 |
| IPVV | ≤ 0.2 |
| NVTL | ≤ 0.2 |
| RRDT | 0.648 |
| ELGV | ≤ 0.2 |
| NIHT | ≤ 0.2 |
| PRPW | ≤ 0.2 |
| QDRY | ≤ 0.2 |
| HVSA | ≤ 0.2 |
| NTQR | ≤ 0.2 |
| VFSK | ≤ 0.2 |
| LHAI | ≤ 0.2 |
| SGQK | ≤ 0.2 |
| GQTM | ≤ 0.2 |
| YNGS | ≤ 0.2 |
| IPSS | ≤ 0.2 |
| QTPY | ≤ 0.2 |
| CKPD | ≤ 0.2 |

| Variant | one-hybrid fitness for binding parS DNA |
| --- | --- |
| GNTA | ≤ 0.2 |
| PMKC | ≤ 0.2 |
| PKTS | ≤ 0.2 |
| LQPY | ≤ 0.2 |
| ACRM | ≤ 0.2 |
| MHRG | ≤ 0.2 |
| MYPV | ≤ 0.2 |
| RTYW | 0.262 |
| MKPG | ≤ 0.2 |
| AGDQ | ≤ 0.2 |
| SPMS | ≤ 0.2 |
| CIHT | ≤ 0.2 |
| NALC | ≤ 0.2 |
| QPAM | ≤ 0.2 |
| RVWY | 0.49 |
| PTED | ≤ 0.2 |
| PRIW | ≤ 0.2 |
| KAGL | ≤ 0.2 |
| PFTY | ≤ 0.2 |
| CRTD | ≤ 0.2 |
